# Reference: PubChem BioAssay AID1347165 (National Center for Advancing Translational Sciences (NCATS), 2019)
# Among all 220,000 compounds or so, about 5,700 (2.6%) were called active. Inconclusive results, whose numbers are uncertain, are shown with a selection of clear calls. Calls follow the shape of the dose curve; as a rule, active = well fitted inhibition curve with a large enough effect; inconclusive = small, poorly fitted or top-dose-only effect; inactive = no such curve, though single readings can be large or run the other way. Potencies beside an inconclusive call are fits to weak or partial responses and may not hold up.
# Biological target: Lysine-specific demethylase 5B (Homo sapiens) (UniProt Q9UGL1)
# UniProt Q9UGL1, sequence (Q9UGL1 whole entry, looked up): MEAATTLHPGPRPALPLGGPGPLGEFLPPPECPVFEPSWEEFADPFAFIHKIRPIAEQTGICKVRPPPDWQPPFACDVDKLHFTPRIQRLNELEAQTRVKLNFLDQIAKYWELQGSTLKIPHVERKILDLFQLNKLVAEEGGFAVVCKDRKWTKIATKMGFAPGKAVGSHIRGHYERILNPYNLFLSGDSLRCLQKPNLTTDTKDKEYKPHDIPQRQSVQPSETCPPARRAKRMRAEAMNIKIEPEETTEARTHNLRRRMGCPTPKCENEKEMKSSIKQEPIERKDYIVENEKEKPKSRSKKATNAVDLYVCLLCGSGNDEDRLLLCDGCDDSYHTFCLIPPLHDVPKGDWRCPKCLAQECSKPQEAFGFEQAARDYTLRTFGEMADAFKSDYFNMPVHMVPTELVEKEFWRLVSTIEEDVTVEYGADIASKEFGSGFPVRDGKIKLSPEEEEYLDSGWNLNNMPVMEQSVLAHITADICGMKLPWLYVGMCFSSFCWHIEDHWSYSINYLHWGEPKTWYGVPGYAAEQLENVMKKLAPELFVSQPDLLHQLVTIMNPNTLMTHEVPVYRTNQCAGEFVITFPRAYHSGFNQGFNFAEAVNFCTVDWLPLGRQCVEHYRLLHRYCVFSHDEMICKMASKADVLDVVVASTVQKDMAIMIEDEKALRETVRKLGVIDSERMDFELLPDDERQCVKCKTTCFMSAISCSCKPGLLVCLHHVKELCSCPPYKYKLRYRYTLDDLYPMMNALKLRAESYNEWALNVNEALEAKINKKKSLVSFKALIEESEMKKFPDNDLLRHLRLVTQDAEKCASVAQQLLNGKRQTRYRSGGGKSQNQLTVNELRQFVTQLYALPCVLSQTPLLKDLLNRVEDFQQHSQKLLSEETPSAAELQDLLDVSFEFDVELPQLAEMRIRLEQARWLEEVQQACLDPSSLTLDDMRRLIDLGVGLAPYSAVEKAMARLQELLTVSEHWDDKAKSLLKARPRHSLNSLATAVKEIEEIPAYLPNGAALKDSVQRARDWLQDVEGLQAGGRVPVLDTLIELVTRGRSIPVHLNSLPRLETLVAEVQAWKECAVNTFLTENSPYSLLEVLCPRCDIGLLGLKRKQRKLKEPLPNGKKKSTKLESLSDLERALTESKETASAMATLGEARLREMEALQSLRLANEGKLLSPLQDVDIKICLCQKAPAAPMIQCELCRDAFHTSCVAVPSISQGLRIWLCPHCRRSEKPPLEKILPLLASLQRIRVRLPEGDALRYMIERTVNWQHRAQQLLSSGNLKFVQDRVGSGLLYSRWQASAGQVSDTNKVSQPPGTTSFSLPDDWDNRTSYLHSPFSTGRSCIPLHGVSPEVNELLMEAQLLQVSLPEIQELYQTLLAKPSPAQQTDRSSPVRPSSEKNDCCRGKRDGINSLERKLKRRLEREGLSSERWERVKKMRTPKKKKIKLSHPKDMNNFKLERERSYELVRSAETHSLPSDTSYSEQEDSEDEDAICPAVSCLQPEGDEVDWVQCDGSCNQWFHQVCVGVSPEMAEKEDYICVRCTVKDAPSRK
# Experiment: Primary screen for KDM5B Histone Demethylases FDH-coupled qHTS; also: nearly all actives have a fitted effect of over 70% in size
# Conditions: FDH-coupled NADH fluorescence (FDH is formaldehyde dehydrogenase); series mostly up to 57.7 µM
# Procedure, shortened: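 Measured: NADH fluorescence change, 30 min, RT. System: KDM5BΔAP 200 nM final, H3K4me3 peptide, α-KG, Fe(II), ascorbate, NAD⁺ plus FDH, pH 7.5 HEPES. Compounds: titrated, 10 min pre-incubation with enzyme.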
# Potency is read from the fitted curve at half-maximal effect; tags tell the direction and shape of the fitted curve.
row,SMILES,Potency
1,Cc1ccn2c(Nc3ccc4c(c3)OCO4)c(-c3ccc(O)cc3)nc2c1,"inconclusive: 28.2 µM [inhibitor, partial curve, poor fit]"
2,CCn1cnc2c1c(=O)n(CC(=O)N(C)CC(=O)N1CCOCC1)c(=O)n2Cc1ccccc1,inactive
3,O=C(NCc1cccs1)c1ccc2c(c1)OCCN(CCC(F)(F)F)C2,inactive
4,CCCCc1ccc(NC(=O)CSc2nc3ccccc3nc2N2CCOCC2)cc1,"inconclusive: 31.6 µM [inhibitor, partial curve, poor fit]"
5,CCOc1ccc(-c2nc(C#N)c(NCCN3CCOCC3)o2)cc1,"inconclusive: 1.78 µM [inhibitor, partial curve, poor fit]"
6,O=C(Nc1cc(Cl)cc(Cl)c1)c1ccc(F)c(S(=O)(=O)NC2CCCCC2)c1,"inconclusive: 35.5 µM [inhibitor, single point]"
7,CC(C)c1ccc2oc(-c3ccc(NC(=O)c4cc5ccccc5o4)cc3)nc2c1,"inconclusive: 25.1 µM [inhibitor, partial curve, poor fit]"
8,Fc1cccc(-c2cnc(Nc3ccc(N4CCOCC4)cc3)c3c2CCO3)c1,active: 31.6 µM
9,COC(=O)c1ccc(OC(=O)C2(c3ccccc3)CCC2)cc1,inactive
10,O=C(c1nccc2ccccc12)N1CCC(Cc2nc(C3CC3)n[nH]2)C1 (configuration not stated),"inconclusive: 28.2 µM [inhibitor, partial curve, poor fit]"
11,Cc1ccc2nc(N3CCN(c4cccc(C)c4C)CC3)c3nncn3c2c1,inactive
12,O/N=C/c1cccc(OCc2ccc(F)cc2)c1,inactive
13,CCc1ccccc1NC(=O)Cn1c(=O)n(Cc2ccco2)c(=O)c2sc3ccccc3c21,"inconclusive: 15.8 µM [inhibitor, partial curve, poor fit]"
14,CCOC(=O)NC(=O)COC(=O)[C@H](C)NC(=O)c1ccccc1,inactive
15,COc1cc(-c2nc(-c3cccc(Cl)c3)c(-c3ccccc3)[nH]2)cc(OC)c1OC,"inconclusive: 25.1 µM [inhibitor, partial curve, poor fit]"
16,Cc1cnc(CCNC(=O)C2CC2)n1CC1CC1,inactive
17,O=C(NCCN1CCCCC1)c1ccc(Cn2c(SCc3cccc(F)c3)nc3cccnc32)cc1,"inconclusive: 22.4 µM [inhibitor, single point]"
18,CC1CCC(NC(=O)c2ccc(CS(=O)(=O)c3c(Cl)cccc3Cl)o2)CC1 (configuration not stated),"inconclusive: 50.1 µM [inhibitor, single point]"
19,CCCCCCCCc1ccc(C(=O)CCN(C)C)cc1,"inconclusive: 25.1 µM [inhibitor, single point]"
20,COc1cc(F)ccc1-c1nccc2c(=O)cc(N3CCOCC3)oc12,active: 35.5 µM
21,COc1ccc(CCNC(=O)c2ccc3c(Cl)c4c(nc3c2)CCCC4)c(OC)c1,"inconclusive: 20 µM [inhibitor, partial curve, poor fit]"
22,CCCCCCNC(=O)C(C#N)c1nc2ccccc2nc1N1CCCCC1 (configuration not stated),inactive
23,CN(C)c1ccc(C(=O)/C=C/c2ccncc2)cc1,inactive
24,COc1cccc(-c2nc3cnccn3c2NCCC(=O)Nc2cccc(Cl)c2)c1,active: 28.2 µM

row,SMILES,Potency
1,CCc1cc(SC#N)cc(CC)c1N,inactive
2,CC(=O)N1CCC(Cc2nc(-c3ccccc3)n[nH]2)CC1,active: 20 µM
3,COc1ccc(-c2cn(C)c(=O)n3cc(CN4CCNC(=O)C4)nc23)cn1,"inconclusive: 28.2 µM [inhibitor, partial curve, poor fit]"
4,CCOc1ccc2oc(C(=O)NNC(=O)c3csc(N4CCOCC4)n3)c(C)c2c1,"inconclusive: 35.5 µM [inhibitor, partial curve, poor fit]"
5,Cn1nc(OC(C)(C)C(=O)NCCc2ccccc2)c2cc(CN3CCCC3)ccc21,active: 39.8 µM
6,CC(C)Cc1ccc(S(=O)(=O)N(C)CC2CCOCC2)cc1,inactive
7,CCCc1cc(=O)oc2c(C)c(OC(C)C(=O)NCc3cccnc3)ccc12 (configuration not stated),"inconclusive: 35.5 µM [inhibitor, single point]"
8,Nc1nc(NCCCc2ccco2)cc(C2CC(O)C2)n1 (configuration not stated),inactive
9,O=C(CC1N=C2c3ccccc3N=C(SCc3cccc(F)c3)N2C1=O)NCc1ccc2c(c1)OCO2 (configuration not stated),"inconclusive: 1.12 µM [inhibitor, partial curve, poor fit]"
10,O=C(c1ccsc1)N1CCCC2(C1)Nc1cccnc1NC2=NC1CCCC1 (configuration not stated),active: 8.91 µM
11,CCN1c2cc(C(=O)Nc3cccc(F)c3)ccc2C(=O)N2CCCCC21 (configuration not stated),"inconclusive: 17.8 µM [inhibitor, partial curve, poor fit]"
12,CN(Cc1ccc(F)cc1)Cc1cnc(S(C)(=O)=O)n1CCCc1ccccc1,inactive
13,O=C1CCC2(CCN(c3ncc(F)cn3)CC2)CN1CC1CCCO1 (configuration not stated),"inconclusive: 8.91 µM [inhibitor, full curve]"
14,COc1cc(O)c2c(c1)/C=C/CCC/C(=N\O)CCC[C@H](C)OC2=O,"inconclusive: 35.5 µM [inhibitor, single point]"
15,COc1ccc(CN2CCOC[C@H]2c2ncc(-c3ccc(S(C)(=O)=O)cc3)[nH]2)cc1,active: 35.5 µM
16,NC(=O)c1cc2c(nc1N1CCC3(CCCN(CC4CCC4)C3)C1)CCC2 (configuration not stated),active: 25.1 µM
17,O=C(c1ccc(Cl)cc1)N1CC2(CCN(Cc3ccncc3)C2)OCc2ccccc21 (configuration not stated),active: 39.8 µM
18,CC(C)c1ccc(NC(=O)c2nc3ccccc3nc2N2CCOCC2)cc1,inactive
19,CCc1ccc(OCC(=O)Nc2ccc(-c3nc4ncccc4o3)cc2)cc1,"inconclusive: 3.55 µM [inhibitor, full curve, poor fit]"
20,O=C(Cn1cccc1-c1nc(-c2ccc3c(c2)OCO3)no1)N1CCCc2ccccc21,active: 31.6 µM
21,c1coc(-c2nc3nccc(-c4cc5ccccc5o4)n3n2)c1,"inconclusive: 28.2 µM [inhibitor, partial curve, poor fit]"
22,Cc1cc(=O)oc2cc(NC(=O)Cc3ccc(Cl)cc3Cl)ccc12,"inconclusive: 28.2 µM [inhibitor, partial curve, poor fit]"
23,Cc1cccc(OCCN(C)C(=O)c2cc(=O)c3ccccc3o2)c1,inactive
24,CCCS(=O)(=O)N1CC(C(=O)NCCc2ccncc2)C2(CCOCC2)C1 (configuration not stated),inactive

row,SMILES,Potency
1,CN1CCOC(CNC(=O)Cc2ccccc2F)C1 (configuration not stated),"inconclusive: 10 µM [inhibitor, partial curve, poor fit]"
2,COCCNc1nc2c(S(=O)(=O)c3ccc(C(C)C)cc3)nnn2c2ccccc12,"inconclusive: 3.55 µM [inhibitor, full curve, poor fit]"
3,COc1ccc(C(=O)NCc2coc(-c3cccs3)n2)c(O)c1,"inconclusive: 39.8 µM [inhibitor, single point]"
4,O=S1(=O)c2ccc(N3CCSCC3)cc2Oc2ccccc2CN1Cc1cn(Cc2cccc(F)c2)nn1,"inconclusive: 22.4 µM [inhibitor, partial curve, poor fit]"
5,CCOC(=O)C(=C(C#N)C#N)C1=C(N2CCOCC2)/C(=C/c2ccccc2)CC1,"inconclusive: 25.1 µM [inhibitor, partial curve, poor fit]"
6,CC(=O)Nc1ccc2[nH]cc(C(C(=O)O)N3CCN(c4ncccc4C#N)CC3)c2c1 (configuration not stated),inactive
7,O=C(c1ccc(F)cc1)N1CC(Oc2cccc(-c3nc(-c4ccccc4)no3)c2)C1,"inconclusive: 31.6 µM [inhibitor, partial curve]"
8,CC(C)CCC(C)NC(=O)c1ccc(CNC(N)=O)cc1 (configuration not stated),inactive
9,C=C(C)COc1ccc2c(=O)c(Oc3ccc(C(=O)OCC)cc3)coc2c1,inactive
10,COc1ccc2c(C)c(CC(=O)NCc3ccco3)c(=O)oc2c1,inactive
11,C1CCC(c2nc(CCOCC3CCOCC3)no2)NC1 (configuration not stated),active: 31.6 µM
12,O=C(c1ccc(F)cc1)N1CCCC2(CNc3ccccc3[S+](=O)([O-])N2)C1 (configuration not stated),inactive
13,N#Cc1ccc(NCCCNc2ccc(C#N)cn2)nc1,"inconclusive: 39.8 µM [inhibitor, single point]"
14,Cc1nc2scc(CC(=O)NC3CC3)n2c(=O)c1-c1cc(C)n(-c2ccc(C(C)C)cc2)n1,"inconclusive: 14.1 µM [inhibitor, partial curve, poor fit]"
15,COc1ccccc1CNC(=O)Cn1c(=O)oc2cc(S(=O)(=O)NCc3ccccc3)ccc21,"inconclusive: 15.8 µM [inhibitor, partial curve, poor fit]"
16,CC(C)CCNc1nc(-c2ccc(S(=O)(=O)N3CCOCC3)cc2)cs1,"inconclusive: 20 µM [inhibitor, partial curve, poor fit]"
17,CN(C)C[C@@H]1CN(Cc2ccncc2)C[C@H]1NC(=O)c1cc(F)cc(F)c1,"inconclusive: 25.1 µM [inhibitor, single point]"
18,Cc1cc(C)cc(NC(=O)c2csc3c2CCCCC3)c1,inactive
19,N#Cc1cccc(C(=O)NCCCc2nc3ccccc3[nH]2)c1,inactive
20,COc1ccc(-c2nnc([C@H]3CCN(C(=O)c4ccc(OC)c(OC)c4)C3)o2)cc1,"inconclusive: 11.2 µM [inhibitor, single point]"
21,COc1ccc2[nH]c3c(c2c1)CCNC31CCN(C(=O)c2nccc3ccccc23)CC1,inactive
22,CCC1CCCCN1C(=O)c1nn(-c2ccc(OC)cc2)c(=O)c2c1c1ccccc1n2C (configuration not stated),inactive
23,Cc1cc(C(=O)N2CCc3nnc([C@@H]4C[C@@H](O)CN4C)n3CC2)n(C)n1,inactive
24,CC1(O)CCCN(Cc2cc3cc4c(cc3nc2-c2ccc(Cl)cc2)OCO4)C1 (configuration not stated),"inconclusive: 20 µM [inhibitor, partial curve]"
